Source: paper PMC6919601, “Identification of Plasmodium dipeptidyl aminopeptidase allosteric inhibitors by high throughput screening” (PLoS ONE, 2019)
In all, about 110,000 compounds went through this assay and about 230 (0.21%) showed an effect of 50% or more. This is one part of the list.

Each molecule was assayed against DPAP1 (Plasmodium falciparum, UniProt Q8IIJ9) (assay: primary screen, percent inhibition; read by cleavage of a fluorogenic dipeptide substrate; higher = more effect of the substance).
Chain of DPAP1 (Q8IIJ9 whole entry, looked up): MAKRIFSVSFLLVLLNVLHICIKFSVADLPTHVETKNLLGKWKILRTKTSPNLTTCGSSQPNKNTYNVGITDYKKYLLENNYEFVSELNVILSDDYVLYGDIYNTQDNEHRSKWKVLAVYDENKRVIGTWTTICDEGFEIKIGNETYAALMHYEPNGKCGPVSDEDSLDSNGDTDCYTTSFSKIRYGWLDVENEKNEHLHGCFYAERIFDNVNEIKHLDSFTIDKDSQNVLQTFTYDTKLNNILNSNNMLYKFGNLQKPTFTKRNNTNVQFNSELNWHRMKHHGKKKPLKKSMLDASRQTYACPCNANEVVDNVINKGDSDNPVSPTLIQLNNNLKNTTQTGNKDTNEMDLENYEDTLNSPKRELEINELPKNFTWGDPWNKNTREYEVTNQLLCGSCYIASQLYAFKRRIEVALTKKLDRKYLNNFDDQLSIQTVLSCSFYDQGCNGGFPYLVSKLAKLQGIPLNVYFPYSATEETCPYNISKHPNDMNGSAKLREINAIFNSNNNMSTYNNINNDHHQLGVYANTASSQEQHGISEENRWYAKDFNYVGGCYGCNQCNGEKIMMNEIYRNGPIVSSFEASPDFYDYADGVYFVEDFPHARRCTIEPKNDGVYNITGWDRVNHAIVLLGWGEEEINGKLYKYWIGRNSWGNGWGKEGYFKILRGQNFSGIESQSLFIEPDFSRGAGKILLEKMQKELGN
Parameters: species or system P. falciparum D10 trophozoite lysates; single well
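Note: 30 min substrate incubation versus DMSO and 10 µM JCP410 controls.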

**Q.** For `CCOC(=O)C(C(=O)Nc1cccc2ccccc12)C1CCCCC1` (centres unmarked), which “% Inhibition @ 10 uM” value is on record?
**A.** Its value is 2.51%.

**Q.** For `Oc1nnc(C(F)(F)F)c2nnn(Cc3ccccc3Cl)c12`, which “% Inhibition @ 10 uM” value is on record?
**A.** The value was 0.401%.

**Q.** How did the “% Inhibition @ 10 uM” value turn out when `O=[N+]([O-])c1ccc(OCCCN2CCCCC2)cc1` was run?
**A.** Its value is -7.28%.

**Q.** `Cc1cc(C)c2c(=O)n(CC(=O)NCCC3=CCCCC3)sc2n1` was tested. Which “% Inhibition @ 10 uM” value did it give?
**A.** The value was -10.5%.

**Q.** `CCc1cc(CC(NC(=O)c2ccc(N3CCOCC3)cc2)C(=O)NCC#N)cc(I)c1O` (centres unmarked) was tested. Which “% Inhibition @ 10 uM” value did it give?
**A.** The value was 0.173%.

**Q.** For `CCCC(=O)OCCNC(=O)c1cc2ccccc2oc1=O`, which “% Inhibition @ 10 uM” value is on record?
**A.** The value was 2.62%.

**Q.** Which “% Inhibition @ 10 uM” value does the source give for `CC(=O)c1cc2c(cc1NC(=O)c1ccc(C)c(C)c1)OCO2` here?
**A.** The value was 5.92%.

**Q.** `COc1ccccc1CNC(=O)C(C)n1nc(C)c2c(C)n(-c3ccc(C)cc3)nc2c1=O` (centres unmarked) was tested. Which “% Inhibition @ 10 uM” value did it give?
**A.** The value was -8.17%.

**Q.** With `COc1cc(NC(=O)c2ccc(Cl)cc2)c(Cl)cc1NC(=O)c1cccs1` as the molecule, how does the “% Inhibition @ 10 uM” value read?
**A.** Its value is 5.84%.

**Q.** `CCOC(=O)c1sc2nc(C3CC3)cc(-c3ccc(OC)cc3)c2c1N` was tested. Which “% Inhibition @ 10 uM” value did it give?
**A.** The value was -2.2%.

**Q.** For `CCOc1ccccc1C(=O)N(Cc1ccc(CC)cc1)Cc1ccco1`, which “% Inhibition @ 10 uM” value is on record?
**A.** Its value is 2.29%.

**Q.** With `Cc1ccc(N2C(=O)NC(c3ccc(F)cc3)(C(F)(F)F)C2=O)nc1` (centres unmarked) as the molecule, how does the “% Inhibition @ 10 uM” value read?
**A.** The value was 0.895%.

**Q.** Which “% Inhibition @ 10 uM” value does the source give for `N#CC1=C(N)Oc2ncnc(O)c2C1c1ccncc1` (centres unmarked) here?
**A.** The value was 1.76%.

**Q.** Which “% Inhibition @ 10 uM” value does the source give for `NC(=O)CSc1nnc(CSc2ncccn2)n1CCc1ccccc1` here?
**A.** Its value is 1.66%.

**Q.** With `CC1=NOC(=O)/C1=C\c1ccc(-c2ccccc2Br)o1` as the molecule, how does the “% Inhibition @ 10 uM” value read?
**A.** The value was 3.12%.

**Q.** With `CC1CC(Nc2ccccc2)c2ccccc2N1C(=O)c1ccc(Cl)cc1` (centres unmarked) as the molecule, how does the “% Inhibition @ 10 uM” value read?
**A.** Its value is 4.26%.

**Q.** Which “% Inhibition @ 10 uM” value does the source give for `CCOc1ccc(C(=O)Nc2nc(-c3ccccc3)cs2)cc1Cl` here?
**A.** The value was 18.2%.

**Q.** How did the “% Inhibition @ 10 uM” value turn out when `O=S1(=O)CCC=C1S(=O)(=O)c1ccccc1` was run?
**A.** The value was 1.21%.

**Q.** How did the “% Inhibition @ 10 uM” value turn out when `O=C(Nc1ccccc1C(=O)O)c1ccc2c(c1)C(=O)N(Cc1ccco1)C2=O` was run?
**A.** Its value is 11.5%.

**Q.** `COc1ccccc1C(=O)/N=C(\N)Nc1nc2ccccc2o1` was tested. Which “% Inhibition @ 10 uM” value did it give?
**A.** Its value is -3.02%.

**Q.** `Nc1cc2cc3c(cc2oc1=O)OCCO3` was tested. Which “% Inhibition @ 10 uM” value did it give?
**A.** Its value is -2.77%.

**Q.** For `Cn1cc(S(=O)(=O)N2CCCC2)cc1C(=O)NCc1ccccc1Cl`, which “% Inhibition @ 10 uM” value is on record?
**A.** The value was 1.39%.

**Q.** Which “% Inhibition @ 10 uM” value does the source give for `O=C(Cc1ccc([N+](=O)[O-])cc1)NCCO` here?
**A.** Its value is 4.08%.

**Q.** `CCn1cc(C=C2C(=O)OC(C)(C(C)(C)C)OC2=O)c2ccccc21` (centres unmarked) was tested. Which “% Inhibition @ 10 uM” value did it give?
**A.** The value was 3.16%.

**Q.** Which “% Inhibition @ 10 uM” value does the source give for `CN(C)/C=C1\CC(=O)N(Cc2ccccc2)C1=O` here?
**A.** Its value is 1.42%.

**Q.** With `O=C(NCCc1ccccc1)C(=O)Nc1ccc(Cl)cc1` as the molecule, how does the “% Inhibition @ 10 uM” value read?
**A.** Its value is -0.414%.

**Q.** For `CCOC(=O)CN(C(=O)c1ccccc1)c1ccccc1C`, which “% Inhibition @ 10 uM” value is on record?
**A.** Its value is 4.57%.

**Q.** How did the “% Inhibition @ 10 uM” value turn out when `COCC(=O)n1nc(-c2ccc(Cl)cc2)nc1NCc1ccc(F)cc1` was run?
**A.** The value was -2.91%.

**Q.** How did the “% Inhibition @ 10 uM” value turn out when `COC(=O)c1ccc2[nH]c3c(c2c1)CN(C)CC3` was run?
**A.** The value was 1.72%.

**Q.** `Cc1ccc(C(=O)Nc2ccc(CC#N)cc2)cc1` was tested. Which “% Inhibition @ 10 uM” value did it give?
**A.** The value was 1.57%.

**Q.** For `O=S(=O)(O)CCC[n+]1c(/C=C/c2ccc3c(c2)OCO3)sc2ccccc21`, which “% Inhibition @ 10 uM” value is on record?
**A.** The value was 2.25%.

**Q.** With `OC1=C2C(=Nc3ccccc3NC2c2ccco2)CC(c2ccccc2)C1` (centres unmarked) as the molecule, how does the “% Inhibition @ 10 uM” value read?
**A.** The value was -2.78%.

**Q.** `Fc1ccc(CN2CCN(c3ccccn3)CC2)cc1Br` was tested. Which “% Inhibition @ 10 uM” value did it give?
**A.** The value was 3.1%.

**Q.** Which “% Inhibition @ 10 uM” value does the source give for `COc1ccccc1N1C(=O)CC(N(CCC23CC4CC(CC(C4)C2)C3)C(C)=O)C1=O` (centres unmarked) here?
**A.** Its value is 0.231%.

**Q.** For `O=C(Cn1nc(-c2ccccc2)ccc1=O)NCCc1ccc(Cl)cc1`, which “% Inhibition @ 10 uM” value is on record?
**A.** Its value is -2.99%.

**Q.** Which “% Inhibition @ 10 uM” value does the source give for `COc1cc(CN2CCN(Cc3cccc(F)c3)CC2)cc(OC)c1OC` here?
**A.** Its value is -10.6%.

**Q.** How did the “% Inhibition @ 10 uM” value turn out when `O=C1NC(=O)C(O)(c2c[nH]c3ccccc23)C(=O)N1` was run?
**A.** The value was -0.186%.

**Q.** Which “% Inhibition @ 10 uM” value does the source give for `CCCCCCOc1ccc(N2C(=O)CC(N3CCN(C)CC3)C2=O)cc1` (centres unmarked) here?
**A.** The value was 2.44%.

**Q.** `Cc1ccc2nc3c(O)n(CCCN(C)C4CCCCC4)cnc-3c2c1` was tested. Which “% Inhibition @ 10 uM” value did it give?
**A.** Its value is 4.8%.

**Q.** How did the “% Inhibition @ 10 uM” value turn out when `O=C(NCc1ccc2c(c1)OCO2)c1cccc2c1C(=O)N(C1CCCCC1)C2` was run?
**A.** The value was -4.69%.

**Q.** `CCCCCCNC(=O)C1C2C=CC(O2)C1C(=O)O` (centres unmarked) was tested. Which “% Inhibition @ 10 uM” value did it give?
**A.** Its value is -2.54%.

**Q.** `COc1ccc(C(CC(=O)O)NC(=O)C(C)C)cc1` (centres unmarked) was tested. Which “% Inhibition @ 10 uM” value did it give?
**A.** The value was 17.5%.

**Q.** How did the “% Inhibition @ 10 uM” value turn out when `COc1cccc(C=C2C(=O)c3ccccc3C2=O)c1OC` was run?
**A.** The value was -6.11%.

**Q.** `O=C(CC1COC(=O)C(=O)N1Cc1ccccc1)NCc1ccccc1` (centres unmarked) was tested. Which “% Inhibition @ 10 uM” value did it give?
**A.** The value was -1.68%.

**Q.** How did the “% Inhibition @ 10 uM” value turn out when `O=C(Cc1ccccc1)Nc1ccccc1C(=O)NC12CC3CC(CC(C3)C1)C2` was run?
**A.** The value was -2.03%.

**Q.** `O=C(O)CCC(=O)Nc1ccc(N2CCN(c3cccc(Cl)c3)CC2)cc1` was tested. Which “% Inhibition @ 10 uM” value did it give?
**A.** The value was -0.318%.

**Q.** With `CCc1ccccc1OCCOCCN1CCN(C)CC1` as the molecule, how does the “% Inhibition @ 10 uM” value read?
**A.** The value was -0.0619%.

**Q.** For `CC(C)=CCN1CCN(C/C=C/c2ccccc2)CC1`, which “% Inhibition @ 10 uM” value is on record?
**A.** The value was -3.27%.

**Q.** With `NCCc1c[nH]c2c(Cl)ccc(Cl)c12` as the molecule, how does the “% Inhibition @ 10 uM” value read?
**A.** Its value is -1.98%.

**Q.** Which “% Inhibition @ 10 uM” value does the source give for `COc1ccc2nc(NC(=O)c3cc4c(s3)-c3ccccc3OC4)sc2c1` here?
**A.** The value was -6.68%.
